In PubChem BioAssay AID2147 (National Center for Advancing Translational Sciences (NCATS), 2009):
Hit rate of the full screen: of about 230,000 compounds, about 3,600 (1.6%) were called active. Inconclusive results, whose numbers are uncertain, are shown with a selection of clear calls. Calls follow the shape of the dose curve; as a rule, active = well fitted inhibition curve with a large enough effect (not every such curve was filed as active); inconclusive = small, poorly fitted or top-dose-only effect, or another doubt; inactive = no such curve, though single readings can be large or run the other way. Where the call is inconclusive, the potency comes from a doubtful curve fit.

Target: Lysine-specific demethylase 4E (Homo sapiens) (UniProt B2RXH2)
Experiment: qHTS Assay for Inhibitors of Human Jumonji Domain Containing 2E (JMJD2E)
Settings: JMJD2E catalytic domain, FDH-coupled NADH fluorescence (FDH is formaldehyde dehydrogenase); series mostly up to 57.1 µM
Also: nearly all actives have a fitted effect of over 50% in size.
Potency is read from the fitted curve at half-maximal effect; tags tell the direction and shape of the fitted curve.

UniProt B2RXH2, sequence (B2RXH2 whole entry, looked up, the tested form may be a part): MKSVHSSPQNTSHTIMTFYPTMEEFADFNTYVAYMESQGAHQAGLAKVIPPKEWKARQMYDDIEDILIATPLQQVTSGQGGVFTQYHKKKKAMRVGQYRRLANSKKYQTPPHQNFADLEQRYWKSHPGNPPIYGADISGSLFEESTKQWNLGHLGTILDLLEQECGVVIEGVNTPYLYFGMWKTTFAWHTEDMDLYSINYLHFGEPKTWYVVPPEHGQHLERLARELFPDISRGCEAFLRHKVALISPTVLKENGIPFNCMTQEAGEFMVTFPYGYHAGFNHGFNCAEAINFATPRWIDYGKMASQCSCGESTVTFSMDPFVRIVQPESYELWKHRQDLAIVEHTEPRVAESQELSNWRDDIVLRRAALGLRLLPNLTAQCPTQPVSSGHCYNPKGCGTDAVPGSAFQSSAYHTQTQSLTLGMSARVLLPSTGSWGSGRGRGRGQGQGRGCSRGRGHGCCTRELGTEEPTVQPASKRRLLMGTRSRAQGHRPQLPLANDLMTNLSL

Structure (SMILES)	Potency
CCOc1cccc2sc(=NC(=O)c3ccco3)n(CC(=O)OC)c12	inconclusive: 31.6 µM [inhibitor, partial curve]
Cc1ccc(N(Cc2cc3ccccc3[nH]c2=O)S(C)(=O)=O)cc1	inconclusive: 31.6 µM [inhibitor, partial curve]
CCCCCCC(C)n1[nH]c(=O)c2c(C)cc(=O)[nH]c21 (stereo not given)	inactive
COc1ccc(Nc2cc(C)nc3ncnn23)c(OC)c1	inactive
CS(=O)(=O)N(CC(=O)N/N=C/c1cccc2c1OCCO2)c1ccccc1Br	inconclusive: 28.2 µM [inhibitor, partial curve]
COc1ccc(NC(=O)C(C)N2c3cccc4cccc(c34)S2(=O)=O)cc1OC (stereo not given)	inconclusive: 5.62 µM [inhibitor, single point]
Cc1cnc(C(=O)OCC(=O)c2csc(N3CCCCC3)n2)cn1	inactive
Cc1ccc(OCC(=O)Nc2ccc(N3CCCC3)cc2)cc1C	inconclusive: 31.6 µM [inhibitor, single point]
COC(=O)c1c(N2C(=O)CC(Sc3ncccc3C(=O)O)C2=O)sc(C)c1C (stereo not given)	inconclusive: 39.8 µM [inhibitor, single point]
Cc1cccc(NS(=O)(=O)c2ccc3c(c2)Cc2cc(S(=O)(=O)Nc4cccc(C)c4C)ccc2-3)c1C	inconclusive: 35.5 µM [inhibitor, single point]
Nc1nc(-c2ccccc2)nn1C(=O)c1ccco1	inconclusive: 35.5 µM [inhibitor, single point]
CCCC(=O)NC(c1cccs1)c1cc([N+](=O)[O-])c2cccnc2c1O (stereo not given)	active: 10 µM
COc1ccc(/C=N/NC(=O)c2nc(-c3ccccc3)cc(-c3ccccc3)n2)cc1OC	inconclusive: 35.5 µM [inhibitor, single point]
CN(Cc1ccccc1)c1nc(-c2cccc([N+](=O)[O-])c2)nc2ccccc12	inactive
CCCCNc1nc(C)nc2c1nc(-c1ccccc1)n2CCCN1CCCCC1C (stereo not given)	inconclusive: 25.1 µM [inhibitor, partial curve]
CCc1ccc(N2C(=O)Cc3c2nc(N)c(C#N)c3N)cc1	inconclusive: 39.8 µM [inhibitor, single point]
COc1cc(-c2nnc(CSc3nnc4nc(C)cc(C)n34)o2)cc(OC)c1OC	inconclusive: 31.6 µM [inhibitor, single point]
Cc1ccc(-n2c(-c3nn(C)c(C)c3Cl)n[nH]c2=S)cc1	inactive
CCCOc1ccc(N2CC(C(=O)Nc3ccc(N4CCOCC4)cc3)CC2=O)cc1 (stereo not given)	inactive
Cc1cc(N/N=C/c2ccccc2)nc(N)n1	inactive
C/C(=N\NC(=O)CCc1ccccc1)C1C(=O)c2ccccc2C1=O	inconclusive: 39.8 µM [inhibitor, single point]
CCOC(=O)c1csc(NC(=O)c2ccc(C#N)cc2)n1	inconclusive: 39.8 µM [inhibitor, single point]
Cc1ccc(-c2cc(C(=O)Nc3ccc(S(=O)(=O)Nc4ncccn4)cc3)c3ccccc3n2)cc1	inconclusive: 25.1 µM [inhibitor, partial curve]

Structure (SMILES)	Potency
CN(C)C(=O)c1ccc(-c2nc(Nc3ccncc3)c3ccccc3n2)cc1	inconclusive: 39.8 µM [inhibitor, single point]
Cc1ccc(S(=O)(=O)Nc2nc3ccccc3nc2N2CCc3ccccc3C2)cc1	inconclusive: 35.5 µM [inhibitor, single point]
O=[N+]([O-])c1cccc(-c2ccc(C(=S)N3CCN(c4ccc(F)cc4)CC3)o2)c1	inactive
C=CCc1cccc(/C=N/NC(=O)C(C)Nc2ccc(C)cc2)c1O (stereo not given)	inconclusive: 39.8 µM [inhibitor, single point]
O=C(NCc1ccccn1)c1ccc(Cl)c(S(=O)(=O)Nc2ccccc2C(=O)NCc2ccccn2)c1	inactive
COc1cccc(/C=N/Nc2nc3ccccc3n3cnnc23)c1O	active: 28.2 µM
Cc1ccc(N=Cc2cc3c(cc2O)OC(N)=C(C#N)C3c2ccccc2)cc1 (stereo not given)	inconclusive: 25.1 µM [inhibitor, partial curve]
COc1cccc(C(=O)N(Cc2ccc(N(C)C)cc2)C2CCS(=O)(=O)C2)c1 (stereo not given)	inactive
Cc1nc(NC(=O)c2cccc(Cl)c2)sc1C(=O)N1CCCCC1	inconclusive: 28.2 µM [inhibitor, partial curve]
CCN1/C(=C2\C(=O)N(C)C(=S)N2C)C=Cc2cc(C)ccc21	inconclusive: 35.5 µM [inhibitor, single point]
N#C/C(=C\c1cc(O)c(O)c(O)c1)C(N)=O	active: 1 µM
C/C(=N\NC(=S)Nc1cc(S(=O)(=O)N2CCOCC2)ccc1Cl)c1ccccc1F	inactive
c1cc2c3c(cccc3c1)NC1(CCCCC1)N2	active: 3.16 µM
Cc1oc2nc(SCC(=O)Nc3ccc(S(N)(=O)=O)cc3)nc(NC(=O)c3ccccc3)c2c1C	inconclusive: 31.6 µM [inhibitor, single point]
COc1ccc(CCN2CNc3c(c(=O)n(C)c(=O)n3C)C2)cc1OC	inconclusive: 35.5 µM [inhibitor, single point]
CC1CCN(Cc2ccc(NC(=O)C3CCN(c4nnc(-n5cccc5)s4)CC3)cc2)CC1	inactive
Cc1nc(N2CCN(C(=O)c3ccc(Cl)cc3)CC2)c(C#N)c2c1COC(C)(C)C2	inconclusive: 35.5 µM [inhibitor, partial curve]
O=C1OCCC1Sc1nnc(-c2cccs2)n1Cc1ccccc1 (stereo not given)	inactive
CCOc1ccc2[nH]c(=O)c(CN(CCc3ccccc3)C(=O)N3CCCC3)cc2c1	inconclusive: 2.82 µM [inhibitor, single point]
O=C(NCC1CCCO1)c1cc2ccccc2oc1=O (stereo not given)	inconclusive: 28.2 µM [inhibitor, partial curve]
N#Cc1nc(-c2ccccc2F)oc1NCCN1CCOCC1	inconclusive: 31.6 µM [inhibitor, partial curve]
Cc1cc(C)cc(NC(=O)Cn2cc3c(n2)CCCCC3)c1	inactive
